Measurements as given in the supplement of paper PMC11417369.
The other results are listed elsewhere or left out.

The sequences below were run on PF3D7_0420300 AP2 domain 1 (GST-tagged) (assay: gcPBM binding intensity (ln(normalized median fluorescence intensity)); higher = stronger DNA binding).
In short: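 An Agilent 4 × 180k array of primer-extended double-stranded 36-bp intergenic genomic probes, with negative controls, was incubated for 1 h with GST-tagged P. falciparum DNA-binding domains expressed in E. coli. Alexa488 anti-GST antibody detected bound protein, scanned at 488 nm. Binding intensity is the highest Masliner-normalised natural-log median intensity across replicate spots of either probe orientation.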
In the case of “CTTTAATATTTTATTTCACACACATAAATGCCCCAA [CACACA_site8569]”, the “gcPBM binding intensity (ln)” value is reported as 9.56. With “AAAAAAAAAGATCACACACACATAAATATAAACAAA [CACACA_site5285]” the “gcPBM binding intensity (ln)” value was 10.2. With “TGATATTATTATAAGGTGCTTAAAAATAAAGATAAT [GTGCAC_site9539]” the “gcPBM binding intensity (ln)” value was 9.11. “AAAAAAAAAAAAAAAAAAAAAAAAAAAAGTTAAAAA [TGCATGCA_negctrl_site74]” was tested, and the “gcPBM binding intensity (ln)” value was 9.05. For “AGTAATAGTTTGTGCACACTCAAGTATATCATAGAT [CACACA_site6082]”, the “gcPBM binding intensity (ln)” value was 9.54. “ATTTTTGTAAATACATGTACATATATATGCATATCC [XGTACX_site6353]” was tested, and the “gcPBM binding intensity (ln)” value was 9.49. With “TTTCGCTTTATTTATGCATGCAAATAAGTTGATATT [TGCATGCA_site724]” the “gcPBM binding intensity (ln)” value was 9.24. For “TACATATATACATACACACACATATAACCAATGTAG [CACACA_site2192]”, the “gcPBM binding intensity (ln)” value was 10. In the case of “AAGAAAAATATTCGTGTGCACAGAAGTATATGTGTG [GTGCAC_site9814]”, the “gcPBM binding intensity (ln)” value is reported as 9.64. “TATTGTAAGAAAGGCACACAGATAAAATTATTATAT [CACACA_site2921]” was tested, and the “gcPBM binding intensity (ln)” value was 9.48. For “ATCATCTTTATTCAAGTGCACTGAAAATTTTTTATA [GTGCAC_site9801]”, the “gcPBM binding intensity (ln)” value was 9.22. In the case of “ATATAAGTGTATCTAACACACAAATATATAAAAATG [CACACA_site1956]”, the “gcPBM binding intensity (ln)” value is reported as 9.55. “ATAATTATATGGCTAGCACACAATAAATAATTATAT [CACACA_site3815]” was tested, and the “gcPBM binding intensity (ln)” value was 9.29. For “ACAAGTTAAAATATTACACACATATAAATATTTATA [CACACA_site7467]”, the “gcPBM binding intensity (ln)” value was 9.47. For “ATATAAATAAAAAAAAAAAAAAAAAAAAAAAAAAAA [CACACA_negctrl_site972]”, the “gcPBM binding intensity (ln)” value was 8.55. For “TATGCTACATTATATGTACACACATATACATATATA [CACACA_site8199]”, the “gcPBM binding intensity (ln)” value was 9.49. For “ATTTATACGTAATATGCATAAATATAAATATATATA [XGTACX_negctrl_site133]”, the “gcPBM binding intensity (ln)” value was 9.04. For “TTAAAATTTTAAAAATTTTAATTTTACAAAAAAAAT [TGCATGCA_negctrl_site227]”, the “gcPBM binding intensity (ln)” value was 8.69. For “TTTCTTTCTTTCTTTTTTTAAATATTTTTTAAAAAT [TGCATGCA_negctrl_site206]”, the “gcPBM binding intensity (ln)” value was 8.99. For “AAATTAATGAAATATACACACATATATAAATATATA [CACACA_site4378]”, the “gcPBM binding intensity (ln)” value was 9.56. For “AAATTTTTTAATTTTTCTCATTTAATTTAAAAATTA [GTGCAC_negctrl_site155]”, the “gcPBM binding intensity (ln)” value was 8.88. With AAATTAAAGATAAAAGTGCAAAATTATAAATTTATT the “gcPBM binding intensity (ln)” value was 9.34. “ATAAGCATCTGGATATGTACTTATTCCTTTAAAGAT [XGTACX_site6225]” was tested, and the “gcPBM binding intensity (ln)” value was 9.06. In the case of “AAAAGTATATATTCAGTGCATAGTCTTTAAATATAA [GTGCAC_site9522]”, the “gcPBM binding intensity (ln)” value is reported as 9.19. “TATATATAACATTGTACACACAAAGAAATAATATTA [CACACA_site3035]” was tested, and the “gcPBM binding intensity (ln)” value was 9.66. For “ATAAAAAAGCAACATCATATGTTTTTATAGAGTATT [CACACA_negctrl_site745]”, the “gcPBM binding intensity (ln)” value was 9.18. With “TATTAAAAATATTATGTACACACATTTTAGATATTT [CACACA_site8549]” the “gcPBM binding intensity (ln)” value was 9.34. “TAATAAGTACCTTTTGCATGTGGCACGCTTTTTTTT [TGCATGCA_site573]” was tested, and the “gcPBM binding intensity (ln)” value was 9.37. “TATTATATAACAAAAAGTACTTATAAGAAATATATA [XGTACX_site5467]” was tested, and the “gcPBM binding intensity (ln)” value was 9.16. “AAATGAATTATATAATATATATAAATAAATAAATAA [CACACA_negctrl_site359]” was tested, and the “gcPBM binding intensity (ln)” value was 9.16. For “CTAAATATATAAAAAAGTACAAAATAAATAATAATT [XGTACX_site2442]”, the “gcPBM binding intensity (ln)” value was 9.63. For “TATATATTATGACCACCACACACCTATACACATAAC [CACACA_site8773]”, the “gcPBM binding intensity (ln)” value was 9.76. “TATTTCTGATTATTTTGTACACATTATATATAATGC [XGTACX_site6990]” was tested, and the “gcPBM binding intensity (ln)” value was 9.25. In the case of “AATATAAACAGACACACACACATATAGATTTATATT [CACACA_site7382]”, the “gcPBM binding intensity (ln)” value is reported as 10.1. For “GGATAGATAATAGGGGGTACAAATATACATACATAT [XGTACX_site5089]”, the “gcPBM binding intensity (ln)” value was 9.69. For “GAAAATAGAAAAAGCACACATATATTTTGGAATGTA [CACACA_site551]”, the “gcPBM binding intensity (ln)” value was 9.54. In the case of “TTTTAATGAAAACACACACACACATATATATATATA [CACACA_site5295]”, the “gcPBM binding intensity (ln)” value is reported as 9.92. For “TTATACATTTGTAAATAAATAGAACTGTATTTTTTT [TGCATGCA_negctrl_site397]”, the “gcPBM binding intensity (ln)” value was 8.95. For “TATATACCGATATATACACACAAATACATAAGCTTC [CACACA_site6760]”, the “gcPBM binding intensity (ln)” value was 9.78. For “CAAAATATTTTTATAACACACATATTTATAACGTGC [CACACA_site6659]”, the “gcPBM binding intensity (ln)” value was 9.41. “TTTTGATTGTTATTCGTATATTATTTTATGATTATA [CACACA_negctrl_site1593]” was tested, and the “gcPBM binding intensity (ln)” value was 9.48. In the case of “AATAATCATTTTCATAGTACGTATGATTAGAAAAAA [XGTACX_site2589]”, the “gcPBM binding intensity (ln)” value is reported as 8.88. With “ATATTTCATCTAGCTACACACATATAATAAATTATT [CACACA_site4094]” the “gcPBM binding intensity (ln)” value was 9.53. With “TTTTCAATATATAGAGCATGCGCATCCACAAATATG [TGCATGCA_site380]” the “gcPBM binding intensity (ln)” value was 8.93. In the case of “TGCCAATTTTTAAAAACATGCATTATATAGAATAAA [TGCATGCA_site872]”, the “gcPBM binding intensity (ln)” value is reported as 8.89. In the case of “AATGGAAAATTATTAACACACACATATAAATATATA [CACACA_site7899]”, the “gcPBM binding intensity (ln)” value is reported as 9.88. For “ATTAAAAGGGGGTTTACATGTGTGTGTGTAATATGG [TGCATGCA_negctrl_site293]”, the “gcPBM binding intensity (ln)” value was 10.2. For “TACAACAATTTTTGCACACACCAAAACATAAAATAA [CACACA_site4964]”, the “gcPBM binding intensity (ln)” value was 9.73. In the case of “TATAAAACCCTACTGTTTCTTCTTTATTGATATATT [TGCATGCA_negctrl_site285]”, the “gcPBM binding intensity (ln)” value is reported as 9.44. “AAAGTTTTTATACATACACACCTATAAATTAAGTGC [CACACA_site7198]” was tested, and the “gcPBM binding intensity (ln)” value was 9.38. “GAAAGAATAAAATAAACATGCAAATAAAACATAAAA [TGCATGCA_site471]” was tested, and the “gcPBM binding intensity (ln)” value was 9.75. For “AATTGTAAATTGGGCACTTATAAAAATGAACAAATA [CACACA_negctrl_site1583]”, the “gcPBM binding intensity (ln)” value was 9.28. In the case of “TCATAAAGAACAAAGTGTACCTATATATTACATACA [XGTACX_site7595]”, the “gcPBM binding intensity (ln)” value is reported as 9.21. For “TAAATACACTGTAGCGCACACGGCCAAAAAAAAAAA [CACACA_site1818]”, the “gcPBM binding intensity (ln)” value was 9.41. “TACTATCTATACAATACACACAAAAAAAAAAAAATA [CACACA_site3981]” was tested, and the “gcPBM binding intensity (ln)” value was 9.69.
